# Results taken from PubChem BioAssay AID1346428 (National Center for Advancing Translational Sciences (NCATS), 2018).
# Among all 48,000 compounds or so, about 1,200 (2.5%) were called active. Another 2% or so got no clear call; they are omitted.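 How the source made its calls: active means activation of at least 60% and not above a set upper limit (about 1 call in 100 departs from these limits); inconclusive means activation of 40% to 60%, or above that upper limit; inactive means activation under 40%.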 The list shows a part of the results.
# Molecular target: Probable G-protein coupled receptor 32 (Homo sapiens) (UniProt O75388)
# Assay: qHTS for Agonists of Human Resolvin D1 Receptor DRV1; further: 0% is about no effect
# Settings: CHO-K1 GPR32 beta-arrestin PathHunter luminescence, 90 min; at 76.9 µM; active compounds read high; zero percent set by DMSO-only wells
# Procedure, shortened: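 Luminescent readout of beta-Gal complementation quantifies ligand-induced beta-arrestin association with GPR32 in CHO-K1 cells; 90 min compound incubation at 37 °C, detection 1 h at room temperature.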
# Chain of UniProt O75388 (O75388 whole entry, looked up): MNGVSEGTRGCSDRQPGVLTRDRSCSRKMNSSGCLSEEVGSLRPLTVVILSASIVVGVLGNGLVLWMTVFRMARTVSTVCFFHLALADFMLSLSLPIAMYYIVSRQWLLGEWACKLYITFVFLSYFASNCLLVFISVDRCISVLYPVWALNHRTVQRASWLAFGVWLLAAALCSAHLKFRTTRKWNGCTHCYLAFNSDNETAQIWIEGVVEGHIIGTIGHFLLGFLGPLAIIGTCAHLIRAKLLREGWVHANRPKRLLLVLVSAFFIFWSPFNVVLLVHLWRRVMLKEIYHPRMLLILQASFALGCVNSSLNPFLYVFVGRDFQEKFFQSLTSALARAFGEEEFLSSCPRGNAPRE
row,Structure (SMILES),activation
1,Cc1ccc(CSc2c(C)cnc3c2c(=O)n(C)c(=O)n3C)cc1,inactive: -2.57%
2,CC(=O)c1ccc(NC(=O)Cn2nc(C(F)(F)F)c3c2CCC3)cc1,inactive: -8.48%
3,Cc1ccc(Cl)cc1N1CCN(C(=O)Cn2cnc3onc(-c4ccc(F)cc4)c3c2=O)CC1,inactive: 3.53%
4,CCc1nc2ccc(C(=O)N3CCN(c4ccccc4F)CC3)cc2nc1CC,inactive: -34%
5,COc1cccc2sc(NC(=O)c3ccc4c(c3)OCCO4)nc12,inactive: 44.8%
6,CCOC(=O)C1=C(CN2CCN(c3ccc(Cl)cc3)CC2)NC(=O)NC1c1ccc(OC)cc1 (stereo not given),inactive: -26%
7,O=C(Cn1ncc2c3ccccc3n(Cc3ccccc3)c2c1=O)NCc1cccs1,inactive: -18.1%
8,CCN(CC)CCNC(=O)CCn1c(=O)c2cccn2c2cccnc21,inactive: -10.6%
9,Cc1ccc2nc(-c3ccc(NC(=O)Cc4ccccc4)cc3)sc2c1,inactive: 16.1%
10,CCCCNC(=O)CCC1N=C2c3ccccc3N=C(SCC(=O)NCCc3ccc(OC)c(OC)c3)N2C1=O (stereo not given),inactive: -17.2%
11,CCc1ccc(NC(=O)CCn2c(-c3ccc(OC)cc3)cc(C(C)=O)c2C)cc1,inactive: -28.6%
12,COc1ccc(C2C=C(c3ccc(F)cc3)Nc3nc(-c4ccc(Cl)cc4)nn32)cc1 (stereo not given),inactive: 10.1%
13,CC1CCN(c2nc3c(S(=O)(=O)c4ccccc4)nnn3c3ccc(Cl)cc23)CC1,inactive: -20.8%
14,COc1ccc(NC(=O)c2ccc3c(c2)N(Cc2cccc(Cl)c2)C(=O)c2ccccc2S3=O)cc1Cl (stereo not given),inactive: -17.9%
15,COc1ccccc1NC(=O)NCCCN1CCN(c2ccc(F)cc2)CC1,inactive: -10.4%
16,O=C(c1cnn(-c2cccc(F)c2)c1-n1cccc1)N1CCN(c2ccccc2F)CC1,inactive: -4.22%
17,Cc1c(C)n(Cc2ccccc2)c2ccc(C(=O)NCc3ccccc3F)cc12,inactive: -14%
18,COc1ccc(-n2nc3c(N4CCC(C(=O)NCc5cccc(F)c5)CC4)nnc(C)c3c2C)cc1,inactive: -5.04%
19,CC(=O)c1cccc(NC(=O)CN2C(=O)c3ccccc3Sc3ncccc32)c1,active: 71.5%
20,CCCN1CCN(CCCNC(=O)c2ccc3c(c2)sc2nc(-c4ccc(OC)cc4)cn23)CC1,inactive: 4.85%
21,COc1ccc(C(=O)Nc2cccc(-c3cn4ccsc4n3)c2)cc1OC,inactive: 9.6%
22,CCS(=O)(=O)c1ccc(OC)c(C(=O)OC)c1,inactive: 14%

row,Structure (SMILES),activation
1,Cc1ccc2c(CNCC(C)c3ccccc3)c(C(=O)O)n(Cc3ccccc3C)c2c1 (stereo not given),inactive: 7.71%
2,CC1=C(C(=O)NCc2ccccc2Cl)C2(CCCCCC2)OC1=O,inactive: -21.6%
3,Cn1c(SCC(=O)N2CCOCC2)ncc(C(=O)Nc2ccccc2)c1=O,inactive: -10.7%
4,CCOC(=O)C1CCN(C(=O)Cn2nc(C)n3c(cc4sccc43)c2=O)CC1,inactive: 18.9%
5,Cc1ccccc1Cn1c(CN2CCC(C(=O)NCc3cccnc3)CC2)cc2ccccc21,inactive: 5.8%
6,COC(=O)COc1ccc(C2C(C(=O)OC)=C(C)NC3=C2C(=O)c2ccccc23)cc1OC (stereo not given),inactive: -81.3%
7,Cn1nnnc1SCCCNCc1ccc(Cl)cc1,inactive: 3.16%
8,COC(=O)c1cc(NC(=O)CCc2c(C)nc3c(c(C)nn3C(C)(C)C)c2C)cc(C(=O)OC)c1,inactive: -12.8%
9,CC(C)c1ccc(C2Sc3ccccc3NC3=C2C(=O)c2ccccc23)cc1 (stereo not given),inactive: -59.6%
10,Cc1ccc2c(c1)cc1c(=O)n(Cc3cccc(Cl)c3)nc(C)n12,inactive: -12.7%
11,Cc1cc(C)c2c(c1)NC(=O)C2(O)c1c[nH]c2ccccc12 (stereo not given),inactive: 8.96%
12,COc1ccc(CCNC(=O)Cc2c(C)c3cc4c(C(C)(C)C)coc4c(C)c3oc2=O)cc1OC,inactive: -13.1%
13,Cc1ccc(CN2COc3ccc4c(C)cc(=O)oc4c3C2)cc1,inactive: 5.01%
14,Cc1nc(N2CCOCC2)c2c(C(=O)N3CCN(c4ccccc4F)CC3)c(C)oc2n1,inactive: -6.74%
15,O=C(Nc1cc(Cl)ccc1Cl)c1cc(S(=O)(=O)NCCc2ccccc2)ccc1F,inactive: -26.4%
16,O=C(NCc1ccc(Cl)cc1)c1cc2c(s1)-c1ccccc1SC2,inactive: -17.1%
17,COc1ccc(-c2nc3c(c(SCC(=O)Nc4cccc(O)c4)n2)Cc2c(CO)cnc(C)c2O3)cc1,inactive: -4.63%
18,CC1CCc2onc(C(=O)N3CCN(c4ccccc4)CC3)c2C1 (stereo not given),inactive: -23.5%
19,O=C(COc1ccccc1F)Nc1ccccc1C(=O)OCc1cc(=O)n2nc(C3CC3)sc2n1,inactive: -3.73%
20,Cc1ccc(C(=O)N(Cc2ccco2)Cc2sccc2C)cc1,inactive: -17.2%
21,COc1ccc(-c2c(C#N)c(SCC(=O)Nc3cccc(Cl)c3)nc(C)c2C(=O)Nc2ccccc2)cc1OC,inactive: -19.7%
22,CCc1ccccc1NC(=O)Cn1c(=O)n(Cc2ccco2)c(=O)c2ccccc21,inactive: 12.9%

row,Structure (SMILES),activation
1,COc1cc(OC)cc(C(=O)Nc2cc3c(cc2N2CCCCC2)n(C)c(=O)n3C)c1,inactive: -3.92%
2,COc1ccc(CNC(=O)c2cnc3sc(N4CCC(C)CC4)nn3c2=O)c(OC)c1,inactive: 28.2%
3,CCCCCCCC(=O)OCC(O)CO (stereo not given),inactive: 2.14%
4,c1ccc(-c2nc[nH]c2-c2ccccc2)cc1,inactive: 15.3%
5,Cc1ccc(N2C(=O)CC(c3ccccc3F)C3=C2COC3=O)cc1Cl (stereo not given),inactive: -15.5%
6,CCc1ccc(NC(=O)C2CCN(c3nn4cc(-c5ccc(OC)cc5)nc4s3)CC2)cc1,inactive: -1.67%
7,CCN(CC)C(=O)Cn1c(=O)n(-c2ccc(Cl)c(Cl)c2)c(=O)c2c(C)c(C(=O)N(CC)CC)sc21,inactive: -10.9%
8,Cc1cccc(S(=O)(=O)Nc2cccc(-c3ccc(N4CCCCC4)nn3)c2)c1,inactive: -24.3%
9,CCc1nnc2c(N3CCN(c4cccc(C)c4)C(C)C3)nc3ccccc3n12 (stereo not given),inactive: -19.2%
10,CCOc1ccc(CCNC(=O)C2CCCN(S(=O)(=O)N(C)c3ccc(F)cc3)C2)cc1 (stereo not given),inactive: 4.06%
11,CCS(=O)(=O)N1CCc2cc(C(=O)NCc3ccccc3OC)ccc21,inactive: 2.72%
12,COc1cccc(NC(=O)C2CCN(c3ccc(Sc4ccc(C)cc4)nn3)CC2)c1,inactive: 10.7%
13,COc1ccc(NC(=O)CN2C(=O)COc3ccc(S(=O)(=O)N4CCOCC4)cc32)cc1,inactive: -11.1%
14,O=C(NCc1ccccc1)C(=O)Nc1c2c(nn1-c1ccc(F)cc1)CSC2,inactive: -24.2%
15,Cc1ccccc1-c1nc2scc(CCNC(=O)c3ccco3)n2n1,inactive: 6.72%
16,CCn1cc(CNC(=O)c2cc(-c3ccc(C)cc3)nc3ccc(Br)cc23)c(C)n1,inactive: -3.5%
17,COc1cccc(NC(=O)C2CCC(CNS(=O)(=O)c3ccc4c(c3)CCCC(=O)N4)CC2)c1 (stereo not given),inactive: -10.7%
18,CCc1ccc2oc(-c3ccc(C)c(NC(=O)/C=C/c4ccco4)c3)nc2c1,inactive: 5.9%
19,O=C(CSc1nc(=O)n(Cc2ccco2)c2c1CCC2)NCc1ccccc1,inactive: -36.9%
20,Clc1ccccc1OCCSc1nnc(-c2cccs2)o1,inactive: 14.2%
21,Cc1ccc2nc(/C(C#N)=C/c3ccccc3F)[nH]c2c1,inactive: -4.89%
22,Cc1cccc(OCCSc2nnc(-c3cccs3)o2)c1,inactive: 14.4%

row,Structure (SMILES),activation
1,Cc1sc2ncn(CC(=O)N3CCN(c4ccccc4F)CC3)c(=O)c2c1S(=O)(=O)N1CCC(C)CC1,inactive: -15.4%
2,O=C(NC1CCCC1)c1ccc2c(=O)n(Cc3ccccc3)c(SCc3ccccc3F)nc2c1,inactive: -5.54%
3,COc1ccc(Cl)cc1-n1cc(-c2ccccc2)nc1SCC(=O)Nc1ccc(C)cc1,inactive: -18.1%
4,COc1ccccc1CNC(=O)C1CCN(c2nc3ccc(C)cc3[nH]2)CC1,inactive: -13.7%
5,CCOc1ccc(CCNC(=O)c2cc3c(-c4ccccc4F)nn(C)c3s2)cc1,inactive: -4.49%
6,CCc1ccc(CNC(=O)CCCn2ccc3cc(S(=O)(=O)N4CCCC4)ccc32)cc1,inactive: -14.5%
7,Cc1ccc(S(=O)(=O)c2nc(-c3ccc(F)cc3)oc2SCC(=O)NC2CCCCC2)cc1,inactive: 0.982%
8,COc1ccc(-c2cc(-c3ccc(C)cc3)nc3c2COc2ccccc2-3)cc1,inactive: -6.2%
9,CCC(Cn1nnc2ccccc2c1=O)NC(=O)Nc1ccccc1OC (stereo not given),inactive: 9.71%
10,COC(=O)c1ccccc1NC(=O)Cn1cnc2sc(C)c(S(=O)(=O)N3CCC(C)CC3)c2c1=O,inactive: -9.1%
11,COc1cccc(Nc2nc3cc(C)ccc3nc2NS(=O)(=O)c2ccc(Cl)cc2)c1,inactive: 29.1%
12,CCOc1ccc(C2C(=O)N(C3CCCCCC3)CC(=O)N2Cc2ccccc2)cc1OC (stereo not given),inactive: -18.5%
13,COc1ccc(NC(=O)/C=C\C(=O)N(c2ccc(C(C)C)cc2)C(C(=O)NCc2ccco2)c2ccc(C)cc2)cc1 (stereo not given),inactive: -24.6%
14,Cc1nc2ccccn2c(=O)c1NC(=O)c1cccc(F)c1,inactive: -3.11%
15,NC(=Nc1ccccc1)NC(=O)c1nc(Cl)c(N)nc1N,inactive: 1.38%
16,CCOC(=O)c1cccc(NC(=O)c2ncoc2-c2ccco2)c1,inactive: -6.18%
17,Cc1ccc(NC(=O)C2(C)Cc3ccccc3C(=O)O2)c(C)c1 (stereo not given),inactive: 47.3%
18,Cc1ccccc1N(C)S(=O)(=O)c1nnc(NC(=O)c2ccco2)s1,inactive: 1.42%
19,CCOC(=O)c1cc(-c2ccc(OC)cc2)n(CCC(=O)NCCc2ccccc2)c1C,inactive: -25.9%
